From publication PMC4336329 (PLoS ONE, 2015)
About 14,000 (4.5%) of roughly 310,000 compounds showed an effect of 50% or more. Effects have a minus sign here. The list shows a part of the results.

Biological target: human ether-à-go-go-related gene (hERG) potassium channel (human, UniProt Q12809)
Assay: primary screen, population patch clamp on CHO cells stably expressing hERG
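Also: peak tail current of the secondary pulse compared with the same well before compound.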

Chain of human ether-à-go-go-related gene (hERG) potassium channel (Q12809 whole entry, looked up): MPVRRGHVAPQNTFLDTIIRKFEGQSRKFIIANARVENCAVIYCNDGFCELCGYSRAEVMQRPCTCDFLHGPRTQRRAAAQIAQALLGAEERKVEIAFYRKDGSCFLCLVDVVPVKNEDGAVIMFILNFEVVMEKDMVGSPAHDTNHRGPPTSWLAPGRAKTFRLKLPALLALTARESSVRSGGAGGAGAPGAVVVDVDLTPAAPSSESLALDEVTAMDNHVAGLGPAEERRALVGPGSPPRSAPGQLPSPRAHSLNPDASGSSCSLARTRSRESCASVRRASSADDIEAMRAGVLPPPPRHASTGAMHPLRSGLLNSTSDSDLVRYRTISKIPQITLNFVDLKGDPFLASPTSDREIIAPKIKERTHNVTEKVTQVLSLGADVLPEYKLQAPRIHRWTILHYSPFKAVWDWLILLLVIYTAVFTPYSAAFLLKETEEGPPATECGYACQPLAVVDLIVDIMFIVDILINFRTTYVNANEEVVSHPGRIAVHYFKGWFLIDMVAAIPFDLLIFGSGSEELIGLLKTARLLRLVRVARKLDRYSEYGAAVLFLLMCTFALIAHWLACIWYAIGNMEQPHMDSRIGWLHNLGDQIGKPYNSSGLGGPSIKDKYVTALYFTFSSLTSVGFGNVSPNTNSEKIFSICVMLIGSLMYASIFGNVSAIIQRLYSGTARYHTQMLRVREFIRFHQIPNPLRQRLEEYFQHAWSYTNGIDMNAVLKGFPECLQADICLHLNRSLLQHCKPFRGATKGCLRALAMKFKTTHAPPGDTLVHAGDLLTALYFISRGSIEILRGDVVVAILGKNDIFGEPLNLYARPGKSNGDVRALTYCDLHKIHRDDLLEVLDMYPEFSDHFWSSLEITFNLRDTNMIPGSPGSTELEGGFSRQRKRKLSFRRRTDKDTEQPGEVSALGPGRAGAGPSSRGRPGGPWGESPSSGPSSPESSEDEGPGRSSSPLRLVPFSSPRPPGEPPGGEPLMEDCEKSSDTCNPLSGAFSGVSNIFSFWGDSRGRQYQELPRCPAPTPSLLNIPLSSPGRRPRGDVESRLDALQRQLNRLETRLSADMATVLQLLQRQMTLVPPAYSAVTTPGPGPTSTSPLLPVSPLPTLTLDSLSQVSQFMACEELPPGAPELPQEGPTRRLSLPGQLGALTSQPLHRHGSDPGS

Structure (SMILES)	hERG current change (%, negative = inhibition) at 10uM [%]
CC(=C/c1ccc(C(C)C)cc1)/C=N/NC(=O)c1ccncc1	0.164
CC(C)CCN(CCC(C)C)CC(O)Cn1c2ccccc2c(=O)c2ccccc21 (stereo not drawn)	-22
CCn1c(SCC(=O)Nc2cccc(NC(=O)c3ccco3)c2)nnc1-c1cccs1	-79.8
Cc1noc(C)c1C(=O)NCCc1ccccc1	0.324
COCc1nc2ccccc2n1Cc1ccc(Br)cc1	-26.5
COc1ccccc1OCCCc1c(C)n[nH]c1C	-2.83
COC(=O)c1cc(OC)c(OC)cc1NC(=O)CCC1CCCC1	6.85
Cc1ccc(C(=O)C2=C(O)C(=O)N(Cc3ccccc3)C2c2cccnc2)o1 (stereo not drawn)	8.29
O=C(Nc1ccc2c(c1)CCC2)Nc1ccccc1Cl	6.96
CSCC[C@H](NC(=O)N1CCn2c1nc1ccccc12)C(=O)NC1CC1	16.4
CCOC(=O)N1CCC(NC(=O)Cn2nc(Cc3ccncc3)c3ccccc3c2=O)CC1	10
Cc1nc([N+](=O)[O-])c(C(=O)OCc2ccccc2Br)n1C	-16.4
CN(C)c1ccc(C(=S)N2CCNCC2)cc1	8.76
CC(=O)Nc1cc(-c2nn(CC(=O)N3CCCCC3)c(=O)c3ccccc23)ccc1N1CCOCC1	2.8
COC(=O)C1=C(N)OC2=C(C(=O)CCC2)C1c1cccnc1 (stereo not drawn)	4.97
CCCOc1ccc(C(=O)NCC(c2ccco2)N(C)C)cc1 (stereo not drawn)	-36.4
CCOc1cc(CNCc2ccncc2)cc(Br)c1OCc1ccc(F)cc1.Cl	-46.6
CC(=O)N(Cc1ccc(F)cc1)c1cccc(C)c1C	4.83
Cc1ccc([N+](=O)[O-])cc1S(=O)(=O)NCCc1c(C)[nH]c2c(C)cccc12	2.85
Cc1ncc([N+](=O)[O-])n1CC(=O)Nc1ccc(OC(F)(F)Cl)cc1	20.1
O=C(N/N=C/c1cc(Br)ccc1O)Nc1ccccc1	24.3
CCCCN1C(=O)c2ccccc2C1C(=O)NC1CCCC1 (stereo not drawn)	-1.36
CSc1nc(-c2ccccc2)nc(N2CCCC2)c1C(C)=O	-10.8

Structure (SMILES)	hERG current change (%, negative = inhibition) at 10uM [%]
CCOC(=O)c1c(C)[nH]c(C(=O)CSc2nccc(C)n2)c1C	22.9
O=C(CN1CC[n+]2c(-c3ccccc3)csc21)c1ccc(Br)cc1.[Br-]	-40.6
O=C(Nc1nnc(C2CCCCC2)s1)c1ccc(Br)s1	1.12
CCNC(=O)COc1cc(C)c(Br)c(C)c1	0.726
O=C(NNS(=O)(=O)c1ccc2ccccc2c1)c1cc(-c2ccccn2)nc2ccccc12	12.7
CNC(=O)NC(=O)CSc1nc2cc(C(=O)OC)ccc2c(=O)n1-c1ccccc1	6.03
O=C(NNS(=O)(=O)c1ccc(Br)cc1)c1sccc1-n1cccc1	3.22
COc1ccc(-c2csc(N(CCCN(C)C)C(=O)c3ccccc3C)n2)cc1.Cl	-75.1
O=C(CSc1nc(-c2ccccc2)cs1)NC(=O)NCc1ccco1	-6.42
CN(C)/C=C(\C#N)C(=O)Nc1ccc(O)cc1F	19
CCC1(CC)Cc2ccccc2-c2nc(CN(C)C)[nH]c(=O)c21	-8.91
CC(NC(=O)/C(C#N)=C/c1cn[nH]c1-c1ccccc1)c1ccccc1 (stereo not drawn)	-18.5
O=C1C=C(Nc2ccc(Cl)cc2)CC(c2ccc(Cl)cc2)C1 (stereo not drawn)	-2.27
COc1ccc2ccc(O)c(CN(C)CC(=O)Nc3ccccc3C(F)(F)F)c2c1	8.1
CCC(CC)C(=O)c1c[nH]c(C(=O)NCc2ccc(F)cc2)c1	-12.3
O=c1[nH]nc(CNc2ccc(C(F)(F)F)cc2)c2ccccc12	1.92
CCc1ccccc1NC(=O)/C(C#N)=C/c1ccc(Sc2ccccc2)o1	-1.81
CC(=O)Nc1ccc(NC(=O)[C@H](C)NC(=O)c2ccco2)cc1	25.1
O=c1[nH]c(CSc2nnc(COc3ccccc3)n2-c2ccccc2)nc2ccccc12	-4.92
Cc1ccc(CC(=O)Nc2ccc(C(=O)N3CCCCC3)cc2)cc1	10.8
O=C(Nc1ccc(Cl)cc1)C1C2CCCCC21 (stereo not drawn)	13.8
Cc1cccc(CCNC(=O)CCNS(=O)(=O)c2cc(Br)cnc2N)c1	-5.7
CCOC(=O)CC(=O)CSc1ncnc2c1nnn2-c1ccc(F)cc1	14.2

Structure (SMILES)	hERG current change (%, negative = inhibition) at 10uM [%]
COc1ccc(NC(=O)CC2Nc3cc(C)c(C)cc3NC2=O)c([N+](=O)[O-])c1 (stereo not drawn)	11.9
COc1ccc(CNC(=O)CSc2cc(=O)n(C)c3ccccc23)cc1	-15
CC(OC(=O)c1nsc(Cl)c1Cl)C(=O)NC1CCCCC1 (stereo not drawn)	16.4
Cl.NCC(O)(c1ccc(Cl)cc1)c1ccc(Cl)cc1	-5.47
COc1ccc(NC(=O)N2CCC(NC(=O)c3ccco3)CC2)cc1	3.68
O=C(CNC(=O)c1ccc(Br)o1)NCc1ccc(Cl)cc1	-3.47
COC(=O)C1CCC(=S)N1C(=O)c1ccccc1 (stereo not drawn)	11.7
COc1ccc(NCc2ccc([N+](=O)[O-])s2)cc1	-13.6
Cc1nc(/N=C(\N)NC(=O)NC2CCCCC2)nc2ccccc12	-21
Cc1nc(S/C(=C/c2ccc(OCc3ccc(C(=O)O)cc3)cc2)C(=O)O)n[nH]1	22.6
O=C(N/N=C/c1c[nH]c2ccccc12)c1cc(Br)ccc1O	8.48
CC(C(=O)N1CCCCCC1)N(c1ccc(Cl)cc1)S(C)(=O)=O (stereo not drawn)	22
COc1cccc(CN2C(=O)CCC2(C)C(=O)NC2CCCC2)c1 (stereo not drawn)	2.48
CC1CCN(CCC(=O)Nc2ccc(Br)cc2)CC1.Cl	-54.6
COc1ccc(Cl)cc1NC(=O)C1CC(=O)N(c2ccc(F)cc2)C1 (stereo not drawn)	4.41
NC(=O)C1CCCN(C(=O)NC2CCCCC2)C1 (stereo not drawn)	-2.48
COc1ccc2cc(C(c3nnnn3C3CCCC3)N3CCCCCC3)c3nnnn3c2c1 (stereo not drawn)	15.9
COCCn1c(-c2ccco2)csc1=Nc1cccnc1.Cl	-3.9
CC(Oc1ccc(Cl)cc1)C(=O)Nc1ccccc1C(=O)N1CCOCC1 (stereo not drawn)	-13.5
COc1ccc(C(=O)c2ccc(CC(=O)O)s2)cc1	7.57
Nc1ccc(C(=O)N/N=C\C=C\c2cccc([N+](=O)[O-])c2)cc1	7.97
CCOC(=O)CSc1nnc(COc2cccc(C)c2)o1	0.751
Cc1ccc(-c2nnn(CC(=O)N(c3ccccc3F)C(C(=O)NC3CCCC3)c3ccco3)n2)o1 (stereo not drawn)	2.59

Structure (SMILES)	hERG current change (%, negative = inhibition) at 10uM [%]
CC(NC(=O)c1cccc(F)c1)C(c1cccs1)N1CCN(C)CC1 (stereo not drawn)	2.52
Cc1cccc(C(=O)NC(NCc2ccco2)C(Cl)(Cl)Cl)c1 (stereo not drawn)	0.591
Cc1cccc(N(C)C(=O)c2coc(=O)c3ccccc23)c1	13.1
O=C(NCc1ccc2c(c1)OCO2)c1nnc(Cc2ccc(F)cc2)o1	-1.56
C/C(=N\Nc1ccc(Cl)c(C(=O)O)c1)c1ccc(N2CCOCC2)cc1	8.13
Cc1ccc(/C=C/C(=O)Nc2ccc(O)c3c(=O)cc(-c4ccccc4Cl)oc23)cc1	10.5
OCc1ccc(-c2nn(Cc3ccccc3)c3ccccc23)o1	-7.85
CCc1ccc(C2c3[nH]c4ccccc4c3CCN2C(=O)c2cc[n+]([O-])cc2)cc1 (stereo not drawn)	-4.19
Cc1ccc2nc(N3CCN(C(=O)c4ccco4)CC3)c3nncn3c2c1	-16
Cc1cc(N2CCCC2=O)ccc1S(=O)(=O)NCCOc1ccccc1	1.37
CCC(=O)Nc1ccccc1-c1nnn(CC(=O)N2c3ccccc3CC2C)n1 (stereo not drawn)	4.52
O=C1CNC(=S)N1C1CCCCCC1	15.5
C=CCCN(C(C(=O)OC)C(C)C)S(=O)(=O)c1ccccc1Br (stereo not drawn)	-2.3
CCC(=O)Nc1nc(-c2cc([N+](=O)[O-])cs2)cs1	10.3
Cc1ccc(S(=O)(=O)N(C)c2ccc(N)cc2)cc1	-4.15
COc1ccc(CNC(=O)c2csnn2)cc1	-29.1
Cc1ccc2[nH]c(=O)c(-c3nc4ccccn4c3NCc3ccco3)cc2c1	-12.3
CCN(CC)S(=O)(=O)c1cccc(NC(=O)c2cc(-c3cccs3)nn2-c2ccccc2)c1	19.4
COc1ccccc1-n1cnnc1SCC(=O)Nc1cccnc1Cl	0.462
COc1ccc(/C=C(/NC(=O)c2ccccc2)C(=O)N/N=C/c2cccs2)cc1OC	12.9
O=C(Nn1nnnc1Nc1ccccc1)C12CC3CC(CC(C3)C1)C2	7.46
